Among the data in PMC8585052 are binding values, retold here.

By UniProt entry, the sequences of proteins in these tests, tags left out.
UniProt Q96EP0: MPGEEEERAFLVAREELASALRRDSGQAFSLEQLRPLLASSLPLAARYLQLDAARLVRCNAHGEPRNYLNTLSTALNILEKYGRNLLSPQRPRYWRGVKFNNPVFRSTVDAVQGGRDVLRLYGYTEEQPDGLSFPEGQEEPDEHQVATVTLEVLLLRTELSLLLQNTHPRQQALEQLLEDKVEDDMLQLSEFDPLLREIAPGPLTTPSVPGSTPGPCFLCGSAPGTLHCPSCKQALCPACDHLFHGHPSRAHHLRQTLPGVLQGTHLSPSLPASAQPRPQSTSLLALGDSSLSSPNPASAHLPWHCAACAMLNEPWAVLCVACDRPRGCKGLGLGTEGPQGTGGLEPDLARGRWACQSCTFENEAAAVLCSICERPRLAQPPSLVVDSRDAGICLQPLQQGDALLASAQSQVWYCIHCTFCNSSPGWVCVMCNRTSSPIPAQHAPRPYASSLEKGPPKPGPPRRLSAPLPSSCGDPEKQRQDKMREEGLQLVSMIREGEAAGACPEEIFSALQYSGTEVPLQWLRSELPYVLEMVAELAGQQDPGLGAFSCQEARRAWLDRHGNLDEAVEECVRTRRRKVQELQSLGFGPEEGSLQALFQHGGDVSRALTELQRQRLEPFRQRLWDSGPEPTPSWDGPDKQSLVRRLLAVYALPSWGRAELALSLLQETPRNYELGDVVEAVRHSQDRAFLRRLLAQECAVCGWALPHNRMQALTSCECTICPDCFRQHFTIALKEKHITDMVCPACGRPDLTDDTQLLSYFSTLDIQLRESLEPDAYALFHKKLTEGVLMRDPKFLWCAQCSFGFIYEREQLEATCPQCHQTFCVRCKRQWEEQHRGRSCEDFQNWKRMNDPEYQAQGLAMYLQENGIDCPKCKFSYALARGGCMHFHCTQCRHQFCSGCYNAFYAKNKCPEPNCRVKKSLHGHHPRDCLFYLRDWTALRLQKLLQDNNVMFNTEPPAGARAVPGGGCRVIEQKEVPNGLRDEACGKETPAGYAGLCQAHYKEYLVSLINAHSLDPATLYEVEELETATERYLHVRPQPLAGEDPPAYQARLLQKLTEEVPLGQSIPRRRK

This test concerns the target T1, FLAG-tagged PKP2 N109 (N-terminal amino acid 1-109 of PKP2) (human) (UniProt Q99959).
T1 sequence: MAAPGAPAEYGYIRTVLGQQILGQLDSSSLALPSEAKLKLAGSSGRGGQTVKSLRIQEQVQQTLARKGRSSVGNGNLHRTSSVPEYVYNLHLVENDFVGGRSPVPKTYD
In words: co-IP; tagged proteins co-transfected into HEK293 cells, lysed after 48 h (50 mM Tris-HCl pH 7.5, 10 mM MgCl2, 100 mM NaCl, 0.5% Nonidet P40, 10% glycerol); immunoprecipitated overnight at 4 °C with the indicated antibody plus protein A/G agarose or anti-FLAG M2 gel; Western blot. A general note: Immunoblotting shows a protein as a band on a membrane.

These are yes or no findings as the source states them, for the method shown. Binding seen in cells or lysates may run through a third protein. Some binding calls cover weakened binding; strength is not graded here. Sequences can lack the tags named with a protein.

“GFP-tagged EGFR (from UniProt P00533 25-1210) (receptor)”: the binding result is listed as “binds”.
In the case of “HA-tagged HOIP (from UniProt Q96EP0 1-1072) (enzyme)”, the binding entry is “binds”.
